Hit rate of the full screen: of about 310,000 compounds, about 14,000 (4.5%) showed an effect of 50% or more. The effect is printed as a negative number. The list shows a part of the results.
Biological target: human ether-à-go-go-related gene (hERG) potassium channel (human, UniProt Q12809)
Assay: primary screen, population patch clamp on CHO cells stably expressing hERG
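Further: peak tail current of the secondary pulse compared with the same well before compound.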

Chain of human ether-à-go-go-related gene (hERG) potassium channel (Q12809 whole entry, looked up): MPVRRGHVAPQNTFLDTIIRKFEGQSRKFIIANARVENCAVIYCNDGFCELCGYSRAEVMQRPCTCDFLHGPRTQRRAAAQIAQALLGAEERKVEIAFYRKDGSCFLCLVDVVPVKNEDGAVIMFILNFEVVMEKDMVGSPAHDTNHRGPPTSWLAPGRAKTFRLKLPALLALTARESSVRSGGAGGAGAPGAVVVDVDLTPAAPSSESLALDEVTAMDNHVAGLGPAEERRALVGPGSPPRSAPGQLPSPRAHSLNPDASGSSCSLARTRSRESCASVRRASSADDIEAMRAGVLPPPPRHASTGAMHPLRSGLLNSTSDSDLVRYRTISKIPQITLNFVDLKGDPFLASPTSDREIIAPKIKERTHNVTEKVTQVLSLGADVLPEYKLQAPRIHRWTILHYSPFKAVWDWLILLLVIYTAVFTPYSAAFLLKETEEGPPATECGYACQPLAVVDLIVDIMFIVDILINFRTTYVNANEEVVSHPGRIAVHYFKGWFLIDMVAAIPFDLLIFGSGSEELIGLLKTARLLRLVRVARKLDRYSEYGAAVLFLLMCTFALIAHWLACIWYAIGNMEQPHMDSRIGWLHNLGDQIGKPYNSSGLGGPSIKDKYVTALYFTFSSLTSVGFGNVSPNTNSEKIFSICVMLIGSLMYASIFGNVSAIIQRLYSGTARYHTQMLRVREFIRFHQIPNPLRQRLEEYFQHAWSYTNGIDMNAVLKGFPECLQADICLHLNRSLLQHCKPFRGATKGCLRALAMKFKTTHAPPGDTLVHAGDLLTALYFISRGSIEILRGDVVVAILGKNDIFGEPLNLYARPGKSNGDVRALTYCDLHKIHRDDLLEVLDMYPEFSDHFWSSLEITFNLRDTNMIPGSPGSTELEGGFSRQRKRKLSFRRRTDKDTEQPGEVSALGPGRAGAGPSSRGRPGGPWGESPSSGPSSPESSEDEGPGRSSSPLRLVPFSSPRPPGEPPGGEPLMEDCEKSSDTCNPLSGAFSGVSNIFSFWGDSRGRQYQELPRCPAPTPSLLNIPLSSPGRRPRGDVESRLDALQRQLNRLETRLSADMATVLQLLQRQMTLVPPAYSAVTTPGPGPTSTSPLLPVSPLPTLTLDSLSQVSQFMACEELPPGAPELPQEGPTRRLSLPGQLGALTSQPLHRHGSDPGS

| Compound | hERG current change (%, negative = inhibition) at 10uM [%] |
| --- | --- |
| Cc1oc2ccc(OC(C(=O)O)c3ccccc3)cc2c1C(=O)O (centres unmarked) | 3.65 |
| Cc1ccc(CNC(=O)CSc2nc(C)cs2)cc1 | 15.4 |
| COc1ccc(N(CC(=O)N2CCc3ccccc3C2)S(=O)(=O)c2ccccc2)cc1 | -32.1 |
| COc1ccc(CN(CC(=O)NCc2ccc(F)cc2)C(=O)CCC(=O)Nc2nccs2)cc1 | -20.4 |
| Cc1ccc([N+](=O)[O-])cc1 | 11.4 |
| CN(CC(=O)NCCc1ccccc1)S(=O)(=O)c1cccs1 | 0.465 |
| CCCN(CCC)CCNC(=O)c1cc2c(-c3ccccc3F)nn(C)c2s1 | -47.2 |
| COc1ccc(C(=O)NCc2ccc(-c3nc4ccccc4s3)cc2)cc1 | 10.1 |
| O=C(CN(Cc1ccc(F)cc1)C(=O)C1CSC(=O)C1)NC1CCCCC1 (centres unmarked) | -22 |
| Cc1ccccc1NC(=O)CSC1=NCCN1.Cl | 16 |
| Cc1ccccc1C1c2[nH]c3ccccc3c2CCN1C(=O)c1ccc(=O)n(C)n1 (centres unmarked) | -10.6 |
| Cc1cc2cc(C#N)c(NCCNC(=S)NCCCN3CCOCC3)nc2cc1C | -24.5 |
| Cn1c(SCC(=O)Nc2cc(Cl)cc(Cl)c2)nnc1-c1ccc2nonc2c1 | 21.1 |
| CCOC(=O)CNC(=O)C1(/C=C/c2ccccc2)CC(=O)N1c1ccc(C)cc1 (centres unmarked) | -12.4 |
| CCC1CCCCN1C(=S)NC1CCCCC1 (centres unmarked) | 17.2 |
| CCOc1ccc(NC(=O)C2CC(=O)N(c3ccccc3F)C2)cc1 (centres unmarked) | 5.41 |
| CS(=O)(=O)Nc1ccc(C(=O)NCc2ccc3c(c2)OCO3)cc1 | -27.8 |
| CCCCOc1cccc(NC(=O)CSc2nncn2C)c1 | -9.67 |
| CC(C)OCCCNC(=O)NC12CC3CC(CC(C3)C1)C2 | -9.81 |
| O=C(CN(Cc1ccc(Br)cc1)S(=O)(=O)c1ccccc1)NCc1ccccn1 | -42 |
| O=C(OCC1OC(Oc2ccc(O)cc2)C(O)C(O)C1O)c1ccccc1 (centres unmarked) | 14.5 |
| Cc1ccc(S(=O)(=O)c2nc(-c3ccccc3)oc2NCc2cccnc2)cc1 | -16 |
| Cc1ccc(-c2nc(COC(=O)c3c(C)noc3C)cs2)cc1 | -11.7 |

| Compound | hERG current change (%, negative = inhibition) at 10uM [%] |
| --- | --- |
| COc1ccc(OC)c2c1cc(C(=O)N[C@@H](Cc1ccccc1)C(=O)O)n2C | 17.3 |
| COc1cccc(C2C(C(=O)Nc3ccc(C)cc3C)=C(C)Nc3ncnn32)c1OC (centres unmarked) | 7.02 |
| CC(C)C[C@@H](CC#N)N1CCN(Cc2ccccc2)CCC1=O | 2.24 |
| O=[N+]([O-])c1ncccc1OCc1ccc(Br)cc1F | 13 |
| Cc1[nH]n(-c2ccccc2)c(=O)c1C(c1ccccc1[N+](=O)[O-])C(C#N)C#N (centres unmarked) | 12.9 |
| COc1ccc(C(C)(C)C)cc1NC(=O)Cn1cnnn1 | 9.38 |
| Cc1cccc(CN2CCNC2=O)c1 | 16.3 |
| O=C(CN1CCN(S(=O)(=O)N2CCCCC2)CC1)Nc1cc(Cl)cc(Cl)c1 | -32.5 |
| O=c1c(OC2OC(CO)C(O)C(O)C2OC2OC(CO)C(O)C(O)C2OC2OC(CO)C(O)C(O)C2O)c(-c2ccc(O)c(O)c2)oc2cc(O)cc(O)c12 (centres unmarked) | 11.1 |
| CCOC(=O)CN(C#N)c1nc(N(C)C)nc(N(C)C)n1 | 2.45 |
| O=C(Nc1ccc(Cl)cn1)C1C(c2ccccc2)C1(Cl)Cl (centres unmarked) | 15.7 |
| CC(=O)Nc1ccc(NC(=O)COC(=O)c2c(-c3ccccc3)noc2C)cc1 | 1.7 |
| COC(=O)c1ccc(OCC(=O)c2ccccc2OC)cc1 | -12.1 |
| CCN1CCCC1CNCC(=O)Nc1ccc(OC(F)(F)F)cc1.O=C(O)C(=O)O (centres unmarked) | -70.7 |
| COc1ccccc1CO/N=C/c1cccn1-c1nccc(N(C)C)c1C#N | -17.2 |
| CCCCOC(=O)Nc1nnc(-c2ccccc2OC)s1 | 6.26 |
| CCC(C)C(NC=C1C(=O)OC(C)(C)OC1=O)C(=O)O (centres unmarked) | -4.97 |
| COc1ccc(-n2ccc3ccccc32)cc1 | 13 |
| O=S(=O)(Nc1nc(-c2ccccc2)cs1)c1cc(Cl)ccc1Cl | 18.3 |
| CN1C(=O)CC(c2ccccc2)C1=O (centres unmarked) | 3.18 |
| O=C(Cc1nc2ccccc2[nH]1)c1ccc(Br)cc1 | -12.7 |
| C=CCN1C(=O)c2ccc(C(=O)N(C)CC(=O)Nc3ccccc3C(F)(F)F)cc2C1=O | 2.6 |
| CCCCn1c(O)c(C(C)=NCc2ccc(F)cc2)c(=O)[nH]c1=O | -5.52 |

| Compound | hERG current change (%, negative = inhibition) at 10uM [%] |
| --- | --- |
| Cc1cc(C)cc(NC(=S)NCc2cccnc2)c1 | -15.8 |
| CCC(=O)N1c2ccc(S(=O)(=O)N(CCO)Cc3ccccc3)cc2CC1C (centres unmarked) | -18.5 |
| COC(=O)C(NC(C)=O)(Nc1ccc(C)cn1)C(F)(F)F (centres unmarked) | 16.7 |
| CC1CCN(C(=O)c2ccc(NC(=O)C3CCCO3)cc2)CC1 (centres unmarked) | 19 |
| O=C(NN1C(=O)C2C(c3ccccc3)C=CC(c3ccccc3)C2C1=O)c1cccc(Br)c1 (centres unmarked) | 18.2 |
| CCOc1ccc(C(C)(N)C(=O)O)cc1 (centres unmarked) | -2.39 |
| Cc1ccc2ccc[n+](Cc3ccccc3)c2c1.[Br-] | -4.2 |
| CN1C(=O)c2cccc3c(S(=O)(=O)NCc4ccco4)ccc1c23 | -36.4 |
| NC(=O)C1CCN(C(=O)C2CCC(=O)N(C3CCCCCC3)C2)CC1 (centres unmarked) | 30.2 |
| O=C(N/N=C/c1c[nH]c2ccccc12)c1cc(-c2ccc(-c3ccccc3)cc2)n[nH]1 | 12.6 |
| COc1ccc(OCc2n[nH]c(=S)o2)cc1 | 20.7 |
| CC12CN3CCN(CC(C3)/C1=N/N=C/c1cccc([N+](=O)[O-])c1)C2 | 3.24 |
| C#CCOCCOCCOCCNc1nc(N2CCN(C(=O)CCCCCCCCCCNC(=O)[C@@H](CCC(=O)O)n3cc(CCCCCN)nn3)CC2)nc(N2CCN(C(=O)CCCCCCCCCCNC(=O)[C@H](CO)n3cc(CCCCCN)nn3)CC2)n1 | -5.69 |
| CC(C)Oc1ccc(C(=O)Nc2ccc(N3CCCCC3)cc2)cc1 | -2.32 |
| CC(C)c1ccc(-c2nn[nH]n2)cc1 | -0.908 |
| Cc1cc(=O)[nH]c(SCC(=O)c2ccc(F)c(C)c2)n1 | 16.9 |
| CCCN(CCC)C(=O)NC1CC(=O)N(c2ccc(OC)cc2)C1 (centres unmarked) | -13.5 |
| COCCn1c(CN2CCC(Cc3ccccc3)CC2)nc2c1c(=O)n(C)c(=O)n2C | -28.2 |
| CCCS(=O)(=O)N1CCN(Cc2ccccc2[N+](=O)[O-])CC1.O=C(O)C(=O)O | -9.2 |
| COc1cccc(C(=O)Nn2cnnc2)c1 | 17.6 |
| CC1(C)Cc2c(cnn2-c2ccc(F)cc2)C(NC(=O)CCn2cncn2)C1 (centres unmarked) | -69.1 |
| Nc1c(C(=O)Nc2ccc3c(c2)OCCO3)nnn1Cc1cccc(F)c1 | -4.88 |
| CN(C)S(=O)(=O)c1ccc(N2CCCC2)c(C(=O)N2CCN(S(=O)(=O)c3cccc(F)c3)CC2)c1 | -10.7 |

| Compound | hERG current change (%, negative = inhibition) at 10uM [%] |
| --- | --- |
| CC(C)(C)CN1CCNC(=O)C1CC(=O)NCCc1ccccc1F (centres unmarked) | 4.25 |
| Clc1ccc(OCc2nnc3n2N=C(c2ccc4c(c2)OCCO4)CS3)c(Cl)c1 | 4.13 |
| COc1ccccc1C(=O)NNC(=O)c1ccccc1F | 13 |
| Cn1c(Cn2c(=O)sc3ccccc32)nnc1SCc1ccc(F)cc1 | -21.6 |
| COC(=O)CSc1nc(C)cc(Oc2ccccc2)n1 | 6.16 |
| Cc1ccc(C)c(N2CCN(S(=O)(=O)c3ccc4c(c3)CC(C)N4C(=O)C3CC3)CC2)c1 (centres unmarked) | 13.8 |
| COc1ccc(CNC(=O)COC(=O)c2ccc(OCC3CCCO3)cc2)cc1 (centres unmarked) | -5.66 |
| Cc1cccc(-n2nc(C)cc2N)c1 | 14.8 |
| CCCN1CCC(NC(=S)Nc2ccc(OC)c(OC)c2)CC1 | 0.614 |
| NC(=O)C(NC(=O)OCc1ccccc1)c1ccccc1 (centres unmarked) | 0.252 |
| CNC(=O)c1cc(OCC(F)(F)F)ccc1OCC(F)(F)F | -4.26 |
| CC(C)Cc1cc(C(=O)N2N=C(C(F)F)CC2(O)C(F)F)c2ccccc2n1 (centres unmarked) | -16 |
| CCn1cc(C(=O)NCc2ccccn2)c(=O)c2cc(F)c(N3CCN(C)CC3)cc21 | 4.37 |
| CCOC(=O)N/N=C\c1ccc(-c2cc(Cl)ccc2Cl)o1 | 4.19 |
| CC(C)Sc1nc2[nH]ncc2c(=O)[nH]1 | 14.5 |
| CCOC(=O)C1(C/C(C)=N/NC(N)=O)CC(C)OC1=O (centres unmarked) | -0.565 |
| CCc1cc2c(N[C@@H](Cc3c[nH]c4ccccc34)C(=O)O)ncnc2s1 | 10.8 |
| Cc1ccc(NC(=O)c2sc3ncn(CC(=O)N4CCN(c5ccccn5)CC4)c(=O)c3c2C)cc1F | -15.6 |
| CCOc1ccc(NC(=O)COC(=O)c2ncc(Cl)c(Cl)c2Cl)cc1 | 15.1 |
| CCC(c1nnnn1C(C)(C)CC)N(CCN1CCOCC1)Cc1cc2cc(C)ccc2[nH]c1=O (centres unmarked) | -29.6 |

From PMC4336329 (PLoS ONE, 2015)
